In PubChem BioAssay AID2546 (National Center for Advancing Translational Sciences (NCATS), 2010):
About 11,000 (3.5%) of roughly 310,000 compounds were called active. The shares of active, inactive and inconclusive entries below differ from those in the screen. Calls follow the shape of the dose curve; as a rule, active = well fitted inhibition curve with a large enough effect; inconclusive = small, poorly fitted or top-dose-only effect, or effect the other way; inactive = flat fitted curve, though single readings scatter. Potencies of inconclusive entries are left out as doubtful fits. Some compounds were tested as several samples or in several runs, with calls that do not always agree.

experiment: VP16 counterscreen qHTS for inhibitors of ROR gamma transcriptional activity; conditions: Drosophila S2 Gal4-VP16 UAS-luciferase, luminescence, 20 h; activity, negative = inhibition: at 53.6 µM (top of the series);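 also: Gal4-VP16 expression switched on by copper sulfate through the metallothionein promoter; nearly all actives have a fitted effect of over 50% in size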
% is scaled to controls: 0 for no effect and ±100 for the full control effect; potency is read from the fitted curve at half-maximal effect; tags tell the direction and shape of the fitted curve.

Compound | activity, negative = inhibition | Potency
O=C(O)/C=C/C(=O)NCCNc1ncc(C(F)(F)F)cc1Cl | inactive: 0.937% [at 10 µM] | –
COc1cc(C=O)ccc1OC(=O)c1ccc(C(C)C)cc1 | – | inconclusive [inhibitor, single point]
CCc1n[nH]c(=S)n1/N=C/c1ccc2c(c1)OCO2 | – | inconclusive [inhibitor, single point]
Cc1cccc2c1NC(=O)/C2=C\C(=O)c1cccs1 | – | inconclusive [inhibitor, single point]
COc1ccc(/C=N/NC(=S)Nc2cc(C(F)(F)F)ccc2Cl)cc1 | – | active: 3.98 µM
COc1ccc(Cl)cc1NC(=S)NCCc1ccc(S(N)(=O)=O)cc1 | – | inactive
CS(=O)(=O)N1CCc2cc(C(=O)N3CCN(c4ccc(F)cc4)CC3)ccc21 | – | inactive
S=C1NC[C@H](c2ccccc2)N1CC1CCCCC1 | – | active: 4.47 µM
CCCOC(=O)c1cccc(Nc2nc(-c3cccnc3)nc3ccccc23)c1 | – | inconclusive [inhibitor, single point]
C/C(=N\Nc1nc2ccccc2[nH]1)c1ccc(C)o1 | – | inconclusive [inhibitor, single point]
N#C/C(=C/c1ccc(Br)o1)C(N)=S | – | inactive
Cc1ccc(Nc2ccc(C(=O)NC3CCCCC3)cn2)cc1 | – | inactive
Cc1ccsc1/C=N/NC(=O)c1cc(-c2ccncc2)nc2ccccc12 | – | active: 8.91 µM
COc1ccc(/C=N/NS(=O)(=O)c2ccc(F)cc2)cc1COc1cc(F)ccc1[N+](=O)[O-] | – | inactive
CCOc1cc(/C=C2\SC(=Nc3ccc(CC)cc3)NC2=O)ccc1OCC(=O)O | – | inactive
COc1cccc(N2CCN(C(=O)c3cccc(NC4=NC5CS(=O)(=O)CC5S4)c3)CC2)c1 (centres undefined) | – | inactive
O=C(NCC1CCCN(C(=O)Cc2ccccc2Cl)C1)c1ccc(F)cc1 (centres undefined) | – | inactive
COCCOC(=O)C1=C(C)NC2=C(C(=O)CC(C)(C)C2)C1c1ccc2c(c1)OCO2 (centres undefined) | – | inactive
CN1CCN(CCCN2c3ccccc3Sc3ccc(C(F)(F)F)cc32)CC1 | – | active: 14.1 µM
COc1ccc(C(=O)NC2CCCN(Cc3ccc(Cl)cc3)C2)c(OC)c1 (centres undefined) | – | inactive
CN(C)Cc1c(-c2ccc(Cl)cc2)nc2ccccn12 | – | inconclusive [activator, single point]
CCc1ccc(N2CC(C(=O)N/N=C/c3cc([N+](=O)[O-])ccc3O)CC2=O)cc1 (centres undefined) | – | active: 10 µM
COc1ccc(Cc2n[nH]c(=S)n2Cc2ccccc2)cc1Cl | – | inactive
COC(=O)c1ccccc1SC1CC(=O)N(c2cccc(C)c2)C1=O (centres undefined) | – | inconclusive [inhibitor, single point]
